PubChem BioAssay AID485273 (Sanford-Burnham Center for Chemical Genomics, 2010)
The campaign covered roughly 330,000 compounds. About 1,500 (0.45%) were called active. This list was built around the results that the source calls inconclusive (neither active nor inactive); the mix of calls is not that of the screen. Cut-off read from the data, not from the text of the source: active = inhibition above about 45% (passing the limit was not always enough); inconclusive = no clear call, values can overlap the other calls.

molecular target: Ubiquitin-conjugating enzyme E2 N (Homo sapiens) (UniProt P61088); test: UBC13 polyubiquitin chain formation inhibitors, primary screen, biochemical, TR-FRET, uHTS (AID 485273); settings: at 20 µM, active compounds read high
UniProt P61088, sequence (P61088 whole entry, looked up): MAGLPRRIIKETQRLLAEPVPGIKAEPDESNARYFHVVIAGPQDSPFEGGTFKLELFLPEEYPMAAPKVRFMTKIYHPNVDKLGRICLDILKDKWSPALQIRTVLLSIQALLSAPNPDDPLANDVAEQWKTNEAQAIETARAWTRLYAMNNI

SMILES | inhibition
O=C1NC(=O)/C(=C\c2ccc(Br)o2)S1 | inactive: -0.1%
O=C(CSc1ncnc2c1cnn2-c1ccc(F)cc1)NC1CCCC1 | inconclusive: 69.1%
CCc1c(C)nc2ccc(Br)cc2c1SCCC#N | inconclusive: 58%
Cc1ccccc1NC(=O)c1sc2nc(N3CCOCC3)c3c(c2c1N)CCCC3 | inconclusive: 83.1%
N#Cc1c(-c2ccco2)nc(SCC(=O)Nc2cccc(Cl)c2)[nH]c1=O | inconclusive: 53%
CCOc1ccc(C2C(C#N)=C(N)SC(N)=C2C#N)cc1OCC | inconclusive: 50.7%
Nc1ncc([N+](=O)[O-])cc1S(=O)(=O)c1ccccc1 | active: 53.5%
NC(=O)c1cc([N+](=O)[O-])ccc1NCC1CCCCC1 | inactive: 7.5%
CCOC(=O)c1cc(-c2ccccc2)sc1NC(=O)c1ccc(OC)c(OC)c1 | inconclusive: 57.7%
O=C(CCCCn1c(=S)[nH]c2ccsc2c1=O)NCc1ccco1 | inconclusive: 69.6%
CCCc1nc2sc3c(=O)[nH]cnc3c2c2c1CCCC2 | inconclusive: 77.5%
Cc1nc(-c2ccccc2)sc1-c1nc(-c2cccnc2)ncc1S(=O)(=O)c1ccccc1 | inconclusive: 66.7%
NC[C@@H]1O[C@H](C23CC4CC(CC(C4)C2)C3)Cc2c1ccc(O)c2O | active: 55.3%
Cc1cccc(N2CCN(C(=O)CCC(=O)N3CC(C)Oc4ccccc43)CC2)c1C (configuration not stated) | inactive: 15.9%
Cc1cc2ccccc2n1CCNC(=O)COc1ccccc1 | inactive: -1.7%
O=C(CSc1nc(CCC2CCCC2)nc2ccccc12)NCc1ccc2c(c1)OCO2 | inconclusive: 50.6%
COC(=O)c1ccccc1S(=O)(=O)N1CCC(C(=O)N2CCC2)CC1 | active: 78.7%
FC(F)(F)C1CCCN(c2nsc3ccccc23)C1 (configuration not stated) | inconclusive: 77%
c1ccc2nc3c(nc2c1)OCC1CCCCN31 (configuration not stated) | inconclusive: 48.1%
O=C(COC(=O)c1ccc2c(c1)OCO2)Nc1ccccc1Cl | inconclusive: 94.5%
CC(C)Cn1c(=O)c(C(=O)Nc2ccccc2S(N)(=O)=O)c(O)c2ccccc21 | active: 68.7%
COc1ccc(N2CCN(CC(O)COc3ccc(C)cc3C)CC2)cc1 (configuration not stated) | inactive: -0.2%

SMILES | inhibition
COC(=O)c1c(-c2ccc(SC)cc2)sc2ccccc12 | inconclusive: 79.2%
O=C(c1ccccc1Cl)N1N=C(c2cccs2)CC1c1cccc(O)c1 (configuration not stated) | inconclusive: 76.9%
COC(=O)c1sccc1NC(=S)Nc1cc(C)ccc1OC | inconclusive: 95.1%
O=C(Nc1ccccc1SCC1CSc2nc3ccccc3c(=O)n21)c1ccccc1Cl (configuration not stated) | inconclusive: 88.5%
COc1ccc(C(=O)NCCOc2cccc(Oc3ccccc3)c2)cc1OC | inconclusive: 69.8%
O=c1c2sccc2[nH]c(=S)n1Cc1ccccc1 | inconclusive: 81.1%
Brc1cccc2sc(N3CCCC3)nc12 | inactive: -0.7%
Cc1ccc(C(=O)N/C(=C\c2ccc(-c3ccc(Cl)cc3)o2)C(=O)NCCCN(C)C)cc1 | active: 47.4%
COc1ccc(S(=O)(=O)N2CCC(C(=O)NCCc3ccc4c(c3)OCO4)CC2)cc1 | inconclusive: 83%
Cc1cc(SCC(=O)Nc2ncc(Cl)cc2Cl)nc2ccccc12 | inconclusive: 62.2%
COc1ccc(C(=O)CSc2nnc3ccc(-c4ccccn4)nn23)cc1 | inconclusive: 90.7%
O=c1c2cc(Cl)ccc2[nH]c(=S)n1Cc1ccccn1 | inconclusive: 78.9%
Cc1ccccc1Nc1nc(N)nc(CSc2nc3ccccc3c(=O)n2C)n1 | inconclusive: 73%
O=C(Cc1ccccc1)NCc1nc2ccccc2[nH]1 | inconclusive: 89.8%
CCn1c(=O)cc(SCC(=O)NCCCN2CCN(c3ccccc3F)CC2)c2ccccc21 | active: 58.2%
N#C/C(=N/Nc1ccccc1[N+](=O)[O-])C(N)=S | inconclusive: 76.7%
Cc1cc2cc3c(cc2nc1SCC(=O)OC(C)C)OCCO3 | inconclusive: 52.6%
CC(=O)C1=C(C)NC(SCC(N)=O)=C(C#N)C1CC(C)C (configuration not stated) | inconclusive: 79%
Cc1cccc(N(Cc2ccccc2)C(=O)c2cccc(S(=O)(=O)N3CC(C)OC(C)C3)c2)c1 (configuration not stated) | inactive: -4%
CN(c1ccc(Cl)cc1)c1cc(=O)n(C)c2ccccc12 | inconclusive: 84.4%
O=c1oc2ccc(Br)cc2cc1-c1nc2ccccc2o1 | inconclusive: 65.2%
COc1cccc(C(=O)/C=C/Nc2ccc(S(=O)(=O)Nc3onc(C)c3C)cc2)c1 | inactive: -18.5%

SMILES | inhibition
C#CCOCCOCCOCCNc1nc(N2CCN(C(=O)C([C@@H](C)CC)n3cc(C(N)COC(=O)C(F)(F)F)nn3)CC2)nc(N2CCN(C(=O)[C@H](CCCCN)n3cc(C(N)[C@H](C)CC)nn3)CC2)n1 (some centres not stated) | active: 114%
NCCCS(=O)(=O)O | inactive: 0.5%
CC(C)CN(C(=O)c1cccc(Cl)c1)c1c(N)n(Cc2ccccc2)c(=O)[nH]c1=O | inactive: 1.1%
Cc1ccc(NC(=O)C(C)OC(=O)CCNS(=O)(=O)c2ccc(C)cc2)cc1 (configuration not stated) | inconclusive: 71.2%
CCOc1ccc(NC(=S)Nc2ccc(C)c([N+](=O)[O-])c2)cc1 | inactive: 1.1%
CCn1c(=NC(=O)c2ccc(N3C(=O)CCC3=O)cc2)sc2c(OC)ccc(OC)c21 | inconclusive: 82.8%
CCCCn1nc(-c2ccccc2)c2nc3ccccc3nc21 | inconclusive: 55.3%
Cc1ccc(-c2nc(=S)c3c(n2Cc2ccco2)CC(C)(C)OC3)cc1 | inconclusive: 73.8%
O=C(Nc1ccc(F)c(Cl)c1)C1CCN(c2ncnc3c2nc2n3CCCCC2)CC1 | active: 73.5%
COc1ccc(/C=N/Nc2cc(C)nc3ccc(Br)cc23)cc1 | active: 60.8%
COC(=O)c1sccc1NC(=S)Nc1ccc(F)cc1F | inconclusive: 67.4%
CCC(C)(C)C(=O)O[C@H]1C[C@@H](C)C=C2C=C[C@H](C)[C@H](CC[C@@H]3C[C@@H](O)CC(=O)O3)[C@H]21 | inconclusive: 72.6%
CCCC[C@@H]1CNC(=O)C(=O)N1CCc1cc(C(F)(F)F)cc(C(F)(F)F)c1 | inactive: -1.9%
Cn1c(C(C#N)/C(=N\S(=O)(=O)c2cccs2)c2ccccc2)nc2ccccc21 (configuration not stated) | inconclusive: 87.9%
CC(C)C[C@H]1CN=C(Nc2ccccc2)N1CC1CCC(C(C)(C)C)CC1 (some centres not stated) | active: 86.9%
CCOC(=O)c1c(CSC(=N)N)n(-c2ccc(C)cc2)c2cc(Br)c(OC(C)=O)cc12 | active: 56.2%
COc1ccc(Cn2c(=S)[nH]c3ccsc3c2=O)cc1 | inconclusive: 73.2%
CCOC(=O)C1CCN(C(c2cc3ccc(C)c(C)c3[nH]c2=O)c2nnnn2C2CCCCC2)CC1 (configuration not stated) | inconclusive: 48%
COc1cccc(CNC(=O)CCc2nc3cc(S(=O)(=O)N4CCOCC4)ccc3n2C)c1 | inactive: 0%
COc1ccc(OCCCC(=O)Nc2ccc(S(=O)(=O)N3CCOCC3)cc2)cc1 | active: 57.6%
Cc1ccc(NC(=O)CN(C)Cc2nc3c(Br)cc(Br)cc3c(=O)[nH]2)cc1 | inconclusive: 85.8%
C=CCc1cccc(CNc2nc3ccccc3n2C)c1O | inconclusive: 74.7%

SMILES | inhibition
O=C(O)CSc1ccc2ccccc2n1 | inconclusive: 64.9%
COc1ccc(C(=O)NC(=S)Nc2nc(-c3ccc(OC)c(Br)c3)cs2)cc1Br | inactive: -12.2%
O=C(CCN1CCN(Cc2ccccc2)CC1)Nc1cccc(Cl)c1 | inactive: -7.8%
O=C(NCc1cccs1)c1cnn2cccnc12 | inactive: 25.1%
C=CCn1c(=S)[nH]c2sccc2c1=O | inconclusive: 61.8%
C[C@@]12C(=O)Nc3ccc(Cl)cc3C(=O)N1[C@H]1c3ccccc3OC[C@@H]1[C@@H]2c1ccccc1 | inconclusive: 51.5%
CCN(CC)S(=O)(=O)c1ccc(C)c(NC(=O)COC(=O)C=C(C)C)c1 | inactive: -2.5%
Cc1cc(Nc2ccc(F)c(F)c2)nc(-c2ccccc2O)n1 | inconclusive: 83.5%
O=S(=O)(c1cc(Br)c(Cl)s1)N1CCCC1 | inconclusive: 77.1%
Cn1c(=O)c(C(=O)Nc2ccccc2S(N)(=O)=O)c(O)c2ccccc21 | inconclusive: 60.7%
CC(C)(C)c1ccc(NC(=O)C2=CN3CCS(=O)(=O)N=C3C=C2)cc1 | inactive: 3.9%
Cc1ccc(NC(=O)c2cnc(SCC(=O)c3ccccc3)n(C)c2=O)cc1 | inconclusive: 56.7%
O=c1oc2cc(O)c(Cl)cc2c2ccccc12 | inconclusive: 90.8%
CN(C(=O)c1sc2nc(N3CCCC3)c3c(c2c1N)CC(C)(C)OC3)c1ccccc1 | inconclusive: 64%
N#CCOc1ccccc1/C=C/c1nc2ccccc2c(=O)[nH]1 | inactive: -2.3%
COCc1cc(C)nc(Nc2ccc(C)cc2C)c1C#N | inconclusive: 67%
CC[C@@H]1CC=C[C@H]2[C@H]1C(=O)N(Cc1ccccc1)[C@H]2c1ccc2ccccc2c1 | inactive: -8.5%
Cc1ccc(C(=O)CCC(=O)Nc2ccc(Cl)c(S(=O)(=O)Nc3cccc(Cl)c3)c2)cc1 | inconclusive: 86.3%
C#CCOCCOCCOCCNc1nc(N2CCN(C(=O)CCCCCCCCCCNC(=O)[C@H](CCCCN)n3cc(CCO)nn3)CC2)nc(N2CCN(C(=O)CCCCCCCCCCNC(=O)[C@H](CCCCN)n3cc(CCO)nn3)CC2)n1 | active: 117%
Cc1cc(OCC(=O)NCc2ccccn2)c2c(C)cc(=O)oc2c1 | inactive: 19%
CN1CCc2nc(SCCOc3ccccc3)c(C#N)cc2C1 | inconclusive: 82.4%
